# Source: PubChem BioAssay AID1963429 (Molecular Pharmacology Branch, DTP, NCI, 2024)
# The source holds more than one record for some entries. Only these are listed. An entry can have further records. Results that share an entry are repeats across runs, samples, wells, individuals or studies. Marks such as [2022-09] give the month of the run.
# Tested on: 126254-015-R-J1-PDC complex spheroid growth, % test/control
# Assay: Anticancer human tumor 126254-015-R-J1-PDC patient-derived soft tissue sarcoma cell line growth inhibition [Asc]
# Settings: compound alone 3 µM; stronger effect = lower value
# Method: Multicellular complex tumor spheroid response to apoptosis pathway targeting inhibitors Alrizomadlin, Pelcitoclax, and Dasminapant in combination with a variety of drugs and investigational agents in selected tumor cell lines
# The MDM2 inhibitor alrizomadlin, the Bcl-2/Bcl-xL inhibitor pelcitoclax, and the IAPs inhibitor dasminapant were evaluated both individually and in combination with standard of care and investigational anticancer small molecules within a complex spheroid model of solid tumors. . Complex spheroids include a stromal component modeled by human endothelial cells (HUVEC) and fibroblasts modeled by human mesenchymal stem cells (MSCs). The concentration ranges selected for each drug and investigational agent were based upon clinically achievable concentrations if the clinical Cmax of the agent was known.
# Compounds. […] If the clinical Cmax for an agent had not been determined, the highest concentration tested was 10 microM. […]
# 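Also: spheroids exposed to compound for seven days; 100% = DMSO vehicle control wells.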
smiles,measurement,value
CCN1C(C(=O)NC23CCC(C(=O)O)(CC2)CC3)C(c2cccc(Cl)c2F)C2(C(=O)Nc3cc(Cl)ccc32)C12CCCCC2 (stereo unspecified),"viability, T/C","92.1, 104, 88.6, 91.8, 91.2, 101, 94.7, 114, 100, 98.4, 93, 93.7, 91.5% [2022-09] and 103% [2022-10]"
